Test results: PubChem BioAssay AID1508642 (National Center for Advancing Translational Sciences (NCATS), 2021)
About 200 (0.47%) of roughly 43,000 compounds were called active. Inconclusive results (about 12%) are left out. The call rests on the fitted dose curve; in most records, active means well fitted cell-killing curve with a large enough effect; inconclusive means small, poorly fitted or top-dose-only effect, or effect the other way; inactive means flat fitted curve, though single readings scatter. Some of the results follow.

Experiment: Cell viability qHTS assay in S16 Pmp22-F2sN cells; further: nearly all actives have a fitted effect of over 65% in size
Settings: S16 Pmp22-F2sN Schwann cells (luciferase reporters placed in the Pmp22 gene) viability, CellTiter-Glo, 24 h; series mostly up to 57.5 µM; activity change, negative = cytotoxicity: at the top concentration
How it was run: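 Seed 500-1,000 S16 Pmp22-F2sN cells per well in phenol-red-free DMEM with 10% heat-inactivated FBS; pin-add 23 nL compound; incubate 24 h at 37C; add CellTiter-Glo, wait 15 min protected from light; read luminescence.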
On the % scale 0 is the no-effect control and ±100 the full control effect.

SMILES | activity change, negative = cytotoxicity
COc1cccc(CNC(=O)Cn2ccc3cc(S(=O)(=O)N4CCC(C)CC4)ccc32)c1 | inactive: -10.9%
CC(C)COc1ccccc1C1CC(=O)Nc2cc3c(cc21)OCO3 (stereo unspecified) | inactive: -14.4%
COc1ccccc1NC(=O)CSc1nnc2c3ccccc3n(C)c2n1 | inactive: 0.819%
Clc1cccc(-n2ncc3c(N4CCN(Cc5ccccc5)CC4)ncnc32)c1 | inactive: -2.32%
Cc1cc(C)cc(OCC(=O)N(Cc2ccc(C)o2)C2CCS(=O)(=O)C2)c1 (stereo unspecified) | inactive: -10.2%
CCC(CC)C(=O)Nc1ccc2nc(SCC(=O)N3c4ccccc4CC3C)sc2c1 (stereo unspecified) | inactive: -6.92%
CC(C)Oc1ccc(CNC(=O)c2ccc3nc(Cc4ccccc4)oc3c2)cc1 | inactive: -4.17%
CCOC(=O)c1c(C)sc(-c2c(-c3ccc(OC)c(F)c3)[nH]c3c2c(=O)[nH]c(=O)n3C)c1O | inactive: 32.6%
COc1ccc(Cl)cc1NC(=O)c1c(NCc2ccc(C)o2)sc2c1CCCC2 | inactive: -0.654%
COCCNC(=O)c1cc2c(Cl)nc3ccc(C)cc3c2s1 | inactive: 3.5%
Cc1ccc(CN(Cc2ccco2)C(=O)c2oc3c(C)c(C)ccc3c2C)cc1 | inactive: -0.699%
COc1cccc(N(CC(=O)N2CCC(C)CC2)S(=O)(=O)c2ccc(C)cc2)c1 | inactive: -2.49%
COc1cc(OC)c(Nc2ncnc3onc(-c4cccc(Cl)c4)c23)cc1Cl | inactive: 11.2%
CCC(C)NC(=O)CSc1nc2cc3c(cc2c(=O)n1CCCC(=O)NCc1ccc2c(c1)OCO2)OCO3 (stereo unspecified) | inactive: 13.5%
CC(C)c1nn2c(=O)cc(COC(=O)CNC(=O)c3ccccc3)nc2s1 | inactive: 11.2%
COc1ccc(NC(=O)Cc2csc(COc3cccc(C)c3)n2)c(OC)c1 | inactive: -3.07%
CCc1ccc(NC(=O)C(=O)NCC(c2cccnc2)N2CCOCC2)cc1 (stereo unspecified) | inactive: 6.6%
CCc1ccc(NC(=O)c2cc3c(=O)n(Cc4cccnc4)ccc3nc2C)cc1 | inactive: -2.62%
Cc1cccc(C(=O)Nc2cccc(OCc3cc(=O)n4c(C)csc4n3)c2)c1 | inactive: -1.17%
COc1ccc(OCC(=O)NCCS(=O)(=O)N2CCN(c3cccc(Cl)c3)CC2)cc1 | inactive: -6.79%
CCn1cc(C(=O)N(C)Cc2ccccc2)c(=O)c2cc(S(=O)(=O)N3CCCCCC3)ccc21 | inactive: 2.21%

SMILES | activity change, negative = cytotoxicity
COc1ccc(-c2noc(CCC(=O)NCc3ccc(OC)cc3OC)n2)cc1 | inactive: -22.6%
COc1ccc(Cl)cc1N(C)C(=O)C(=O)Nc1ccc2nc3n(c(=O)c2c1)CCCCC3 | inactive: 3.96%
Cc1ccc(CN(C(=O)COc2ccc(Br)cc2)c2ccccn2)o1 | inactive: 1.2%
Cc1ccc(N2CCN(C(=O)c3noc4c3COc3ccc(C)cc3-4)CC2)c(C)c1 | inactive: 3.97%
COc1ccc(NC(=O)CSc2nc(-c3ccccc3)nc3c2Cc2c(CO)cnc(C)c2O3)cc1Cl | inactive: 2.09%
Cc1ccc(C)c(N2CCN(C(=O)C(C)n3c(C)c4cnn(-c5ccccc5)c(=O)c4c3C)CC2)c1 (stereo unspecified) | inactive: -10.4%
Cc1ccc2oc(=O)n(CCNC(=O)Nc3ccc(C)c(F)c3)c2c1 | inactive: 0.956%
COc1ccccc1C1C=C(c2ccc(Cl)cc2)Nc2nc(-c3ccc(Cl)cc3)nn21 (stereo unspecified) | inactive: -15.6%
O=C(CSCc1cnn(-c2ccccc2)c1-n1cccc1)Nc1ccc(F)cc1F | inactive: 5.19%
Cc1ccc(CNC(=O)c2c(-c3cccc(Br)c3)noc2C)o1 | inactive: -5.36%
CC(Nc1ccc(-c2nc(-c3ccccn3)no2)cc1[N+](=O)[O-])c1ccccc1 (stereo unspecified) | inactive: 4.3%
COC(=O)c1ccc(OCC2c3cc(OC)c(OC)cc3CCN2C(=O)c2ccccc2F)cc1 (stereo unspecified) | inactive: 0.113%
Cc1ccc(C)c(Cn2nc(C)n3c(cc4cc(C)ccc43)c2=O)c1 | inactive: 2.54%
N#Cc1cccc(NC(=O)c2ccc3c(c2)N(Cc2cccc(Cl)c2)C(=O)c2ccccc2S3(=O)=O)c1 | inactive: -0.346%
O=C(Nc1nnc(S(=O)(=O)N2CCOCC2)s1)c1ccc(F)cc1 | inactive: 8.76%
O=C(c1ccc(F)cc1F)N1CCC(c2noc(-c3ccc(S(=O)(=O)N4CCCC4)cc3)n2)CC1 | inactive: 8.56%
CCOc1ccc(OCC)c(NC(=O)C2CCN(c3cnccn3)CC2)c1 | inactive: 2.34%
Cn1c(=O)oc2cc(S(=O)(=O)Nc3ccc(O)cc3)ccc21 | inactive: -3.15%
COc1ccc(C2NC(=O)N(C)C3=C2C(=O)N(c2ccc(C)cc2)C3)cc1 (stereo unspecified) | inactive: 6%
Cc1ccccc1-c1noc(-c2ccccc2OCC(=O)Nc2ccccc2[N+](=O)[O-])n1 | inactive: 2.03%
CCc1ccc(S(=O)(=O)c2nnn3c2nc(NCc2ccccc2OC)c2cc(Cl)ccc23)cc1 | inactive: -0.892%

SMILES | activity change, negative = cytotoxicity
CCc1ccc(NC(=O)CN(Cc2ccccc2)S(=O)(=O)c2ccc3nc(C)sc3c2)cc1 | inactive: -9.39%
O=C(CCn1cnc2onc(-c3ccc(F)cc3)c2c1=O)N1CCN(c2cccc(Cl)c2)CC1 | inactive: -9.88%
Cc1ccc(NC(=O)Cn2c(-c3nonc3N)nc3ccccc32)cc1Cl | inactive: -1.78%
CCOc1ccc(CNC(=O)C2Cc3cc(S(=O)(=O)N4CCCCCC4)ccc3N2C(C)=O)cc1 (stereo unspecified) | inactive: 11.4%
CCOc1ccc(CCNC(=O)c2ccc(C)c(-n3c(C)nc4cccnc43)c2)cc1OCC | inactive: 8.77%
Cc1ccc(CNC(=O)c2cnn3c(C)c(Cc4c(F)cccc4Cl)c(C)nc23)cc1 | inactive: 7.57%
Cc1ccc2oc3c(c(=O)c2c1)C(c1cccc(O)c1)N(CCCN1CCOCC1)C3=O (stereo unspecified) | inactive: -0.216%
COc1ccc(N(Cc2cccs2)C(=O)COc2ccc([N+](=O)[O-])cc2)cc1 | inactive: -9.28%
Cc1cc(Br)ccc1NC(=O)CN1C(=O)c2cccnc2Sc2ccccc21 | inactive: 0.611%
CCOc1ccc(C(=O)Nc2cc(-c3ccccc3)no2)cc1 | inactive: 2.02%
CCOc1ccccc1NC(=O)c1cc2ccc3cccnc3c2[nH]1 | inactive: 5.76%
CCN(Cc1ccccc1)C(=O)c1cc2ccc3cccnc3c2[nH]1 | inactive: -2.08%
CCOc1ccc(N(CC(=O)Nc2ccc3c(c2)OCO3)S(=O)(=O)c2ccccc2)cc1 | inactive: 8.21%
CC(C)Sc1ncc(Cl)c(C(=O)Nc2c(C(=O)Nc3ccccc3)oc3ccccc23)n1 | inactive: -1.18%
O=C1c2oc3ccccc3c(=O)c2C(c2cccc(O)c2)N1Cc1ccc(F)cc1 (stereo unspecified) | inactive: -2.77%
O=C(c1cc(-c2ccc(Cl)cc2)on1)N(Cc1ccc(F)cc1)Cc1ccco1 | inactive: -2.97%
Cc1nn(C)c2c1c(-c1ccccc1)cc(=O)n2Cc1c(F)cccc1Cl | inactive: 8.11%
CCc1cccc(NC(=O)c2sc3nc[nH]c(=O)c3c2C)c1 | inactive: -18.6%
CCc1ccc(NS(=O)(=O)c2ccc3[nH]cc(C(=O)N4CCCCCC4)c(=O)c3c2)cc1 | inactive: 4.71%
